PubChem BioAssay AID493208 (National Center for Advancing Translational Sciences (NCATS), 2011)
Hit rate of the full screen: of about 44,000 compounds, about 340 (0.77%) were called active. Another 5% or so got no clear call; they are omitted. Calls follow the shape of the dose curve; as a rule, active = well fitted inhibition curve with a large enough effect; inconclusive = small, poorly fitted or top-dose-only effect; inactive = flat fitted curve, though single readings scatter. This is one part of the list.

Test: Acumen qHTS Assay for Inhibitors of the mTORC1 Signaling Pathway in MEF (Tsc2-/-, p53-/-) Cells: Sytravon;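 also: plate controls were DMSO for no effect and rapamycin for full effect; nearly all actives have a fitted effect of over 50% in size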
Details: phospho-rpS6 immunofluorescence/PI, 24 h; series mostly up to 38.3 µM; activity change, negative = inhibition: at the top concentration
Method in brief: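 Plate MEFs (Tsc2-/-, p53-/-, empty vector) in DMEM/10% FBS; after 24 h add compound, incubate 24 h at 37 degree Celsius; fix in PFA/TX-100, block, stain phospho-rpS6 and 10 uM PI; scan at 488 nm; report % positive cells.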

Activity change, negative = inhibition, inactive:
CCSC1=NC2(CCN(C(=O)NC3CCCCC3)CC2)N=C1c1ccc(Cl)cc1 -0.278%
Cc1ccc(NC(=O)c2sc3nc4c(cc3c2N)CN(Cc2ccccc2)CC4)cc1 -9.73%
CCN1C(=O)c2ccccc2Sc2ccc(NC(=O)c3ccc(Cl)cc3)cc21 -1.86%
Cc1oc2ncn(C)c(=O)c2c1C(=O)N1CCN(c2ccccc2F)CC1 -12.4%
CCc1nn(Cc2ccc(Cl)cc2)c(=O)c2cc3cc(C)ccc3n12 -0.219%
Cc1cccc(NS(=O)(=O)c2ccc3c(c2)C(C)(C)C(=O)N3C)c1 -8.2%
O=C(CN1C(=O)COc2ccc(S(=O)(=O)N3CCCC3)cc21)N1CCN(c2ccccc2)CC1 0.371%
O=C(CSc1ncc2c(n1)-c1ccc(Cl)cc1N(Cc1ccccc1)S2(=O)=O)Nc1ccc(F)c(F)c1 -10%
COc1ccc2c(Sc3ccccc3)c(C(=O)NCCc3ccc(Cl)cc3)[nH]c2c1 -3.92%
CCOC(=O)C1CCCN(CC(=O)N2CCCc3c2c(=O)oc2ccc(OCc4ccccc4)cc32)C1 (stereo not given) -7.26%
COc1cc(OC)cc(C(=O)Nc2cc(-c3nc4cc(Cl)ccc4o3)ccc2Cl)c1 2.29%
CCN1CCN(CCCNC(=O)c2cc3c(s2)-c2ccccc2OC3)CC1 -19.3%
O=C(NCc1ccc2c(c1)CCN2C(=O)c1ccccc1)c1cc2ccccc2[nH]1 -3.83%
CCc1ccc(NC(=O)c2sc3ncnc(N(C)C4CCCCC4)c3c2C)cc1 0.686%
CC(=O)C1=C(c2ccc(C)cc2)N(C(C)=O)n2c(nnc2C2CCCCC2)S1 0.263%
CCOc1ccc(C2C(C(N)=O)=C(C)Nc3nc(SCc4ccccc4)nn32)cc1 (stereo not given) 2.97%
CCCCNC(=O)CSc1nc2ccccc2nc1Cc1ccc(C)cc1 0.909%
COc1cccc(CN2C(=O)c3ccccc3Sc3ccc(C(=O)N(C)Cc4ccccc4)cc32)c1 -10.7%
O=C(c1cccs1)c1cn(CCOc2ccccc2F)c2ccccc12 3.62%
COc1cccc2cc(-c3nc(Nc4cccc(C)c4)sc3C)c(=O)oc12 -11.7%
CC(C)c1ccc(S(=O)(=O)c2nnn3c2nc(N2CCN(C)CC2)c2sccc23)cc1 -8.53%
COc1cc(C2c3c(-c4ccccc4O)n[nH]c3C(=O)N2CCO)ccc1OCc1ccccc1 (stereo not given) -2.89%
COc1cccc(CNC(=O)c2ccc3nc(-c4ccc(F)cc4)c(-c4ccc(F)cc4)nc3c2)c1 -6.76%
CCOC(=O)c1ccccc1NC(=O)c1c2c(nc3ccccc13)C(=O)N(C1CCCCC1)C2 0.0596%
COc1ccc(C(=O)Nc2nc3nc(C)c(Cc4ccccc4)c(=O)n3[nH]2)cc1OC -12.6%
Cc1ccc(CNC(=O)COCc2cc(-c3cccs3)on2)cc1 6.97%
CCOc1ccc(CNC(=O)C2CCN(S(=O)(=O)N3CCC(C)CC3)CC2)cc1OC 4.99%
CC1=C(C(=O)Nc2cccnc2)C(c2cccc(Br)c2)n2nc(SCc3ccccc3)nc2N1 (stereo not given) -1.12%
Cc1cccc(CNS(=O)(=O)c2ccc(-c3cnc(C4CC4)o3)cc2)c1 14.3%
CCCc1cc(=O)n2[nH]c(NC(=O)c3ccc(C(C)(C)C)cc3)nc2n1 2.46%
CC(=O)c1cccc(NC(=O)CN2C=NS(=O)(=O)c3ccc(C)cc32)c1 -2.04%
CC1=C(C(=O)Nc2ccccc2C)C(c2ccncc2)n2nc(SCc3ccccc3Cl)nc2N1 (stereo not given) 3.25%
COc1ccc(S(=O)(=O)Nc2cccc(-c3ccc(N4CCC(C)CC4)nn3)c2)cc1OC -5.77%
Cc1cccc(-c2noc(-c3ccccc3NC(=O)C3CC(=O)N(c4ccccc4C)C3)n2)c1 (stereo not given) 0.217%
CCn1c(=O)c2cc(C(=O)Nc3cc(OC)c(OC)c(OC)c3)sc2c2ccccc21 -10.5%
Cn1ccc2cc(S(=O)(=O)N3CCCC(C(=O)NCc4ccccc4)C3)ccc21 (stereo not given) -1.97%
O=C(COc1ccc(F)cc1)OCc1cc(=O)n2nc(C3CCCCC3)sc2n1 2.96%
Cc1cc(-c2ccc(C)c(S(=O)(=O)NC(c3cccs3)C(C)C)c2)on1 (stereo not given) -7.37%
O=C(NCCS(=O)(=O)N1CCN(c2ccccc2)CC1)C1CC(=O)N(c2ccc(F)cc2)C1 (stereo not given) 0.463%
COc1ccc(NC(=O)CCSc2nc(-c3ccc(OC)cc3)cc(C(F)(F)F)n2)cc1 -0.0207%
CCc1nnc(SCc2c(F)cccc2Cl)c2cc3sccc3n12 -2.12%
CC(C)CCNC(=O)c1ccc2c(c1)NC(=O)C(CS(=O)(=O)Cc1ccc(F)cc1)N2 (stereo not given) 3.74%
Cc1ccc(NC(=O)Cn2cc(C(=O)C3CC3)c3ccccc32)c(C)c1 -0.324%
CC1=C(C(=O)N2CCN(c3cc(C)ccc3C)CC2)C2(CCC(C)CC2)OC1=O (stereo not given) -11.4%
COc1ccc(C(C(=O)NCc2ccccc2)N(C(=O)Cn2nnc3ccccc32)c2cccc(OC)c2)cc1 (stereo not given) -3.8%
CCOC(=O)c1cccc(NC(=O)CCc2nc3cccnc3n2-c2ccccc2)c1 -22.6%
CCOc1ccc(NC(=O)C2(c3cccs3)CCOCC2)cc1 3.28%
Cc1cc(C)c2sc(NC(=O)c3ccc(S(=O)(=O)N4CCCC4)cc3)nc2c1 8.42%
COc1ccccc1C(=O)Nc1nc2nc(C)cc(=O)n2[nH]1 0.999%
CCOC(=O)c1c(C)oc2ccc(N(C(=O)c3ccncc3)S(=O)(=O)c3ccc(CC)cc3)cc12 -11.2%
COc1ccc(OC)c(S(=O)(=O)Nc2ccc3c(c2)n(C)c(=O)n3C)c1 -20.1%
O=C(CN1C(=O)COc2ccc(S(=O)(=O)NC3CCCC3)cc21)Nc1ccc(Cl)cc1F -8.11%
CCOC(=O)c1c(C)[nH]c(CCC(=O)Nc2cc(Cl)ccc2OC)c1C -17.7%
CCc1ccc(NC(=O)c2nc3nc(C)cc(C(F)F)n3n2)cc1 -8.27%
CN(C)S(=O)(=O)N(CC(=O)Nc1ccc(C(F)(F)F)cc1)c1ccccc1 0.291%
Cc1ccc(OCCSc2nc3ccc(NC(=O)c4cccs4)cc3s2)cc1 -9.22%
Cc1ccc(S(=O)(=O)N2CC=C(c3c(C)n(CC(=O)N4CCCC4)c4ccccc34)CC2)cc1C -12.4%
Cc1sc(-n2cccc2)c(C(C)NC(=O)Nc2cccc(C(F)(F)F)c2)c1C (stereo not given) -25.9%
COc1cc(OC)cc(C(=O)NCCc2csc3nc(-c4ccccc4F)nn23)c1 1.39%
CCOc1cccc(C(=O)N(Cc2ccc(C)o2)C2CCS(=O)(=O)C2)c1 (stereo not given) 4.68%
COc1cccc(CNC(=O)c2cc(-c3ccc(Cl)cc3)n[nH]2)c1 -7.21%
O=C(CCC(=O)N1CCSc2ccccc21)Nc1ccc(Cl)cc1 1.56%
CCC(CC)c1nn2c(=O)cc(COc3ccc(NC(=O)c4cccc(C)c4)cc3)nc2s1 -20.4%
COc1ccc(CNC(=O)c2ccc3c(c2)N(Cc2cc(C)ccc2C)C(=O)CS3)cc1 -6.79%
COc1ccccc1CNS(=O)(=O)c1cc(Br)cc2c1N(C(=O)C1CC1)CC2 -1.54%
COc1ccc(CNc2nc(-c3ccc(Cl)cc3)nn2S(=O)(=O)c2ccc(C)cc2)cc1 4.48%
O=c1cc(COc2ccc(Cl)cc2Cl)nc2scc(-c3ccccc3)n12 1.49%
COc1ccccc1OCC(=O)N(Cc1ccco1)Cc1ccccc1F -3.13%
CC(CNC(=O)c1ccc2c(c1)nc1n2CCCCC1)c1ccccc1 (stereo not given) -2.51%
CCOc1ccc(CC(=O)NC2CC(=O)N(c3cccc(F)c3)C2)cc1 (stereo not given) -3.1%
Cc1ccc(C2C(=O)N(C3CCC(C)CC3)CC(=O)N2C2CCCC2)cc1 (stereo not given) 2.83%
COc1ccccc1-c1nn2c(=O)cc(CN3CCN(C(=O)Nc4ccc(C)cc4Cl)CC3)nc2s1 -1.23%
CCOc1ccc(-n2c(=O)c3c(C)c(C)sc3n(CC(=O)C(C)(C)C)c2=O)cc1 -0.258%
Cc1cc(NS(=O)(=O)c2ccc(NC(=O)COc3c(C)ccc(C)c3C)cc2)nc(C)n1 -3.35%
Cc1ccc(-n2c(=O)c3c(c4cc(C)ccc4n3C)n(CC(=O)Nc3ccc(F)cc3)c2=O)cc1 1.36%
CC(=O)c1ccc(N2CCN(C(=O)c3cn(C)c(=O)c4c3c3ccccc3n4C)CC2)cc1 0.748%
CCS(=O)(=O)N1CCc2cc(C(=O)Nc3ccc(Br)cc3F)ccc21 -0.127%
COc1cc(C(=O)NCC(c2ccco2)S(=O)(=O)c2cccs2)cc(OC)c1OC (stereo not given) 0.862%
CCc1cccc(C)c1NC(=O)c1ccc2c(c1)CCN2S(=O)(=O)c1ccc(Cl)cc1 6.36%
COc1ccc(CNC(=O)COCc2cc(-c3ccc4c(c3)OCO4)on2)cc1 0.141%
Cc1cc(C)cc(NC(=O)CCc2c(C)nc3nc(CNC(=O)c4cccc(F)c4)nn3c2C)c1 -5.54%
COCCCNc1nc2c(c(=O)n(Cc3ccc(F)cc3)c(=O)n2C)n1C 2.3%
CCCCC(=O)Nc1nnc(S(=O)(=O)N(C)Cc2ccc(Cl)cc2)s1 -3.9%
COc1ccc(N(Cc2cccs2)C(=O)c2ccco2)cc1 -8.93%
COc1ccc(OC)c(S(=O)(=O)NCC(c2ccc(N(C)C)cc2)N2CCOCC2)c1 (stereo not given) 7.05%
COC(=O)c1cc(NC(=O)c2cc3c(-c4ccccc4F)nn(C)c3s2)cc(C(=O)OC)c1 5.88%
COc1ccc(N2CCN(S(=O)(=O)c3ccc(CC(C)C)cc3)CC2)cc1 -0.655%
O=C(NCC(c1ccco1)S(=O)(=O)c1cccs1)c1ccccc1 (stereo not given) -17.6%
Cc1c(Cl)cccc1Nc1nn2c(=O)c3ccccc3nc2s1 -9.17%
COC(=O)c1cc2oc3ccccc3c2n1Cc1ccc(C)cc1 -3.29%
CCOC(=O)c1cc2c(=O)n3ccccc3nc2n(Cc2ccco2)c1=NC(=O)c1ccccc1Br 0%
CCOc1ccc(NC(=O)Cn2c(=O)n(CCCC(=O)NCCc3ccc(Cl)cc3)c(=O)c3ccccc32)cc1 -0.0216%
Cc1ccccc1-c1noc(-c2ccc(NCC3CCCO3)c([N+](=O)[O-])c2)n1 (stereo not given) 5.22%
COc1ccccc1CNC(=O)CC(c1ccc(F)cc1)N1Cc2ccccc2C1=O (stereo not given) -14.2%
Cc1ccc(Cn2c(SCC(=O)NCc3ccccc3)nc3ccsc3c2=O)cc1 -7.21%
